Measured values reported in patent US6121271A, “Naphtho[2,3-B]heteroar-4-yl derivatives” (American Home Products Corporation, priority 1999, dated 2000).

Target: T1, recombinant, human protein tyrosine phosphatase (PTP) 1B (Homo sapiens, UniProt P18031)
T1 sequence (P18031 1-435): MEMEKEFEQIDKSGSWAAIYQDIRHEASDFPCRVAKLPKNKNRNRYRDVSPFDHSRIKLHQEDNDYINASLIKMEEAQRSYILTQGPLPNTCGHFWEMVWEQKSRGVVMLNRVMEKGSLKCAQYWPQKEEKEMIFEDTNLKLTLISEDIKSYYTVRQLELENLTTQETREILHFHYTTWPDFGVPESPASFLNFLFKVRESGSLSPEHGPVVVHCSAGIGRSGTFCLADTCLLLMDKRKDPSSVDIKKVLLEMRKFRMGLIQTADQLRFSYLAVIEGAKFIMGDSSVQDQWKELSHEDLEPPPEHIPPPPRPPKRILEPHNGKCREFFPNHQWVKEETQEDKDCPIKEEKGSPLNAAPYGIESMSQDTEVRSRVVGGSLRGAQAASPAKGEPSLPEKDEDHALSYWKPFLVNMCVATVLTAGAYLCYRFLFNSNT
Details: not given

**Q.** How did the IC50 turn out when `Cc1sc2c(Br)c3ccccc3c(-c3ccc(OS(=O)(=O)c4scc(C(=O)O)c4O)c(C4CCCC4)c3)c2c1C` [Example 11, 5-[4-(9-Bromo-2,3-dimethyl-naphtho[2,3-b]thiophen-4-yl)-2-cyclopentyl-phenoxysulfonyl]-4-hydroxy-thiophene-3-carboxylic acid] was run?
**A.** 28 nM

**Q.** `CCc1cc(-c2c3ccccc3cc3sc(C)c(C)c23)cc(CC)c1OS(=O)(=O)c1scc(C(=O)O)c1OC(=O)c1ccccc1` [Example 20, 4-Benzoyloxy-5-[4-(2,3-dimethyl-naphtho[2,3-b]thiophen-4-yl)-2,6-diethyl-phenoxysulfonyl]-thiophene-3-carboxylic acid] was tested. Which IC50 did it give?
**A.** 193 nM

**Q.** Which IC50 does the source give for `CCc1cc(-c2c3ccccc3cc3oc(C)c(C)c23)cc(CC)c1OS(=O)(=O)c1ccc(C(=O)O)c(O)c1` [Example 15, 4-[4-(2,3-Dimethyl-naphtho[2,3-b]furan-4-yl)-2,6-diethyl-phenoxysulfonyl]-2-hydroxy-benzoic acid] here?
**A.** 79 nM

**Q.** For `Cc1oc2cc3ccccc3c(-c3ccc(OS(=O)(=O)c4ccc(C(=O)O)c(O)c4)c(C4CCCC4)c3)c2c1C` [Example 13, 4-[2-Cyclopentyl-4-(2,3-dimethyl-naphtho[2,3-b]furan-4-yl)-phenoxysulfonyl]-2-hydroxy-benzoic acid], which IC50 is on record?
**A.** 125 nM

**Q.** How did the IC50 turn out when `Cc1cc(-c2c3ccccc3cc3sc(C)c(C)c23)cc(C)c1OS(=O)(=O)c1ccc(C(=O)O)c(OC(=O)c2ccccc2)c1` [Example 23, 2-Benzoyloxy-4-[4-(2,3-dimethyl-naphtho[2,3-b]thiophen-4-yl)-2,6-dimethyl-phenoxysulfonyl]-benzoic acid] was run?
**A.** 33 nM

**Q.** Which IC50 does the source give for `Cc1cc(-c2c3ccccc3c(Br)c3sc(C)c(C)c23)cc(C)c1OS(=O)(=O)c1ccc(C(=O)OC(C)(C)C)c(O)c1` [Example 16, 4-[4-(9-Bromo-2,3-dimethyl-naphtho [2,3-b]thiophen-4-yl)-2,6-dimethyl-phenoxysulfonyl]-2-hydroxy-benzoic acid tert-butyl ester] here?
**A.** 380 nM

**Q.** With `Cc1cc(-c2c3ccccc3c(Br)c3sc(C)c(C)c23)cc(C)c1OS(=O)(=O)c1ccc(C(=O)O)c(OC(=O)c2ccc(C#N)cc2)c1` [Example 28, 2-(4-Cyano-benzoyl)oxy-4-[4-(9-bromo-2,3-dimethyl-naphtho[2,3-b]thiophen-4-yl)-2,6-dimethyl-phenoxysulfonyl]-benzoic acid] as the compound, how does the IC50 read?
**A.** 24 nM

**Q.** With `COc1cccc(C(=O)Oc2cc(S(=O)(=O)Oc3c(C)cc(-c4c5ccccc5c(Br)c5sc(C)c(C)c45)cc3C)ccc2C(=O)O)c1` [Example 29, 2-(3-Methoxy-benzoyl)oxy-4-[4-(9-bromo-2,3-dimethyl-naphtho[2,3-b]thiophen-4-yl)-2,6-dimethyl-phenoxysulfonyl]-benzoic acid] as the compound, how does the IC50 read?
**A.** 38 nM

**Q.** Which IC50 does the source give for `Cc1sc2cc3ccccc3c(-c3ccc(OS(=O)(=O)c4cccc(C(=O)O)c4)c(C4CCCC4)c3)c2c1C` [Example 21, 3-[2-Cyclopentyl-4-(2,3-dimethyl-naphtho[2,3-b]thiophen-4-yl)-phenoxysulfonyl]-benzoic acid] here?
**A.** 196 nM

**Q.** With `Cc1cc(-c2c3ccccc3cc3sc(C)c(C)c23)cc(C)c1OS(=O)(=O)c1ccc(C(=O)O)c(OC(=O)c2cccnc2)c1` [Example 25, Nicotinic acid 2-carboxy-5-[4-(2,3-dimethyl-naphtho[2,3-b]thiophen-4-yl)-2,6-dimethyl-phenoxysulfonyl]-phenyl ester] as the compound, how does the IC50 read?
**A.** 49 nM

**Q.** `COc1ccc(C(=O)Oc2cc(S(=O)(=O)Oc3c(C)cc(-c4c5ccccc5c(Br)c5sc(C)c(C)c45)cc3C)ccc2C(=O)O)cc1` [Example 17, 2-(4-Methoxy-benzoyl)oxy-4-[4-(9-bromo-2,3-dimethyl-naphtho[2,3-b]thiophen-4-yl)-2,6-dimethyl-phenoxysulfonyl]-benzoic acid] was tested. Which IC50 did it give?
**A.** 15 nM

Same assay, conditions: read-out: % inhibition @ 1 (μM)

**Q.** With `Cc1sc2cc3ccccc3c(-c3ccc(OS(=O)(=O)c4ccc(-c5ccccn5)s4)c(C4CCCC4)c3)c2c1C` [Example 19, 5-Pyridin-2-yl-thiophene-2-sulfonic acid 2-cyclopentyl-4-(2,3-dimethyl-naphtho[2,3-b]thiophen-4-yl)-phenyl ester] as the compound, how does the inhibition at 1 µM read?
**A.** 20%
